PubChem BioAssay AID588855 (National Center for Advancing Translational Sciences (NCATS), 2011)
In all, about 410,000 compounds went through this assay and about 5,000 (1.2%) were called active. This list was built around the results that the source calls inconclusive (neither active nor inactive); the mix of calls is not that of the screen. The call rests on the fitted dose curve; in most records, active means well fitted inhibition curve with a large enough effect; inconclusive means small, poorly fitted or top-dose-only effect; inactive means no such curve, though single readings can be large or run the other way. Potencies beside an inconclusive call are fits to weak or partial responses and may not hold up.

assay: qHTS for Inhibitors of TGF-b; details: HepG2 CAGA-GFP TGF-b/SMAD3 reporter, GFP fluorescence, 18 h, TGF-beta stimulated, 500 pg/mL final; series mostly up to 46.1 µM; further: nearly all actives have a fitted effect of over 65% in size
Source text: TGF-b is a main component in the TGF-b signaling pathway which plays diverse roles in cellular and development pathways. TGF-b is the mediated by the transcription factors Smads. Although the Smad-dependent pathway is the primary canonical TGF-b signaling node, TGF-b1 can also activate alternative signaling pathways, including those involving MAPK (ERK, JNK and p38). This interaction may mediate or enhance Smad-dependent responses, or can exert Smad-independent effects. The complexity of this signaling cascade allows the TGF-b superfamily to perform unique, overlapping or redundant functions. We believe that targeting the TGF-beta pathway at the Smad-transcription factor level may eliminate the consequences of disrupting the entire pathway and offer specificity without affecting other signaling pathways. Smad3 is the primary transducer of TGF-b's signals and Smad3 regulates many functions attributed to TGF-b signaling. We hypothesize that Smad3 inhibitors will selectively eliminate Smad3-specific TGF-beta signals without undesired off-target effects. We aim to identify Smad3-small molecule antagonists using a quantitative high throughput screening (qHTS) approach.
A high-throughput assay was developed to screen the NIH Molecular Libraries Small Molecule Repository (MLSMR). This is a cell based assay, where TGF-b is tagged with GFP. A counterscreen is run that looks at cytotoxicity (please see summary AID).
MH087449NIH Chemical Genomics Center [NCGC]
NIH Molecular Libraries Probe Centers Network [MLPCN]
Assay Submitter (PI): Sushil Rane, National Institute of […]
Suspensions of trypsinized HEPG2 CAGA-GFP cells were dispensed into white, tissue culture-treated, solid 1536-well plates at 5uL/well (1000 cells/well final concentration) in DMEM medium supplemented with 1% FBS. Plates were incubated at 37 degrees C for 2 hours, after which 23 nL of compounds or DMSO were delivered to each well using a pin tool. One uL of recombinant TGF-beta in DMEM (1% FBS) was then dispensed (500 pg/mL final concentration), and plates were incubated at 37 degrees C for 18 hours. The plates were measured on an Acumen eX3 Explorer plate reader for GFP fluorescence (ex488/em500-530). GFP values were calculated by determining the mean GFP fluorescence of individual cells, and compiling these values for each well to determine a total well GFP signal. The %Activity was determined from the corrected fluorescence values. A titration of the known TGF-B inhibitor SB431542 was included to monitor plate performance, while unstimulated HEPG2 (-TGF-B) control wells were used to normalize %Activity of identified inhibitors; unstimulated wells corresponded to 100%Activity (full inhibition), while stimulated cell controls (+DMSO) were used to normalize 0%Activity (no inhibition).
Concentration-response curves were fitted to the signals arising from the resulting fluorescence. The concentration-effect curves were then classified based on curve quality (r2), response magnitude and degree of measured activity, and compounds were subsequently categorized based on their curve class.
Potency means the concentration at half of the fitted maximal effect; tags describe the fitted curve by direction and shape.

Row | Compound | Potency
1 | O=C(NCc1ccccn1)c1ccc(Cl)cc1Cl | inconclusive: 35.5 µM [inhibitor, single point]
2 | CCCCCCCn1c2c(c(=N)c3c1CCC3)CCCC2 | inconclusive: 15.8 µM [inhibitor, partial curve, poor fit]
3 | CCn1nc(C)c(CN2CCCC(CNS(=O)(=O)c3ccc(OC)cc3)C2)c1C (centres undefined) | inactive
4 | OCCNCC(O)Cn1ccc2ccccc21 (centres undefined) | inactive
5 | O=C(CSc1ncnc2nc[nH]c12)N1CCN(c2ccccc2)CC1 | inconclusive: 0.562 µM [inhibitor, partial curve, poor fit]
6 | O=C(O)c1ccc(/C=C(\c2nc3ccccc3[nH]2)c2nc3ccccc3s2)cc1 | inconclusive: 17.8 µM [inhibitor, single point]
7 | C/C(=N\NC(=O)c1c([N+](=O)[O-])c(C)nn1C)c1ccc(NC(=O)C2CCCC2)cc1 | inactive
8 | COc1ccc(NC(=S)N2CCC(C(=O)c3ccc(C)cc3)CC2)cc1 | inconclusive: 35.5 µM [inhibitor, single point]
9 | Cc1cccc(N2CCN(Cc3cn(C)nc3-c3ccccc3F)CC2)n1 | inconclusive: 7.08 µM [inhibitor, partial curve, poor fit]
10 | CC1=C(c2ccc(C(C)C)cc2)S(=O)(=O)N=C1N1CCN(c2ccc(F)cc2)CC1 | inactive
11 | COc1ccccc1Nc1nc(N)nc(CSC(=S)N2CC(C)CC(C)C2)n1 (centres undefined) | inactive
12 | O=C(CCCc1ccccc1)NC1CC(=O)N(c2ccc(Cl)cc2)C1 (centres undefined) | inconclusive: 25.1 µM [inhibitor, single point]
13 | CS(=O)(=O)N(CC(=O)NCCSCc1ccccc1)c1ccccc1 | inconclusive: 12.6 µM [inhibitor, partial curve, poor fit]
14 | COc1ccc(N2CCN(c3ccc([N+](=O)[O-])cc3Cl)CC2)cc1 | inconclusive: 0.562 µM [inhibitor, full curve, poor fit]
15 | COc1ccc(CC(=O)N2CCN(c3ccccc3OC)CC2)cc1OC | inactive
16 | CCc1nc2ccc(C(=O)N(C)Cc3ccccc3)cn2c1N(C)CCCc1ccccc1 | inconclusive: 35.5 µM [inhibitor, single point]
17 | CCCCC(=O)Nc1ccc2nc(SCC(=O)N3CCOCC3)sc2c1 | inconclusive: 35.5 µM [inhibitor, single point]
18 | O=C(COc1ccc(Cl)cc1Cl)NC(=S)N1CCCc2ccccc21 | inconclusive: 17.8 µM [inhibitor, single point]
19 | CC(=O)c1c(NC(=O)C(C)C)nc(C)nc1-c1ccccc1 | inconclusive: 5.62 µM [inhibitor, single point]
